Out of some 340,000 compounds screened, about 12,000 (3.5%) were called active. Inconclusive results, whose numbers are uncertain, are shown with a selection of clear calls. Calls come from the whole dose curve; as a rule, active = well fitted inhibition curve with a large enough effect; inconclusive = small, poorly fitted or top-dose-only effect, or another doubt; inactive = no such curve, though single readings can be large or run the other way. No potency is given beside an inconclusive call; the fits are too rough.
test: qHTS Assay for Inhibitors of Hepatitis C Virus (HCV); settings: Huh7.5.1 HCVcc-Cre (HCVcc is cell-culture hepatitis C virus) infection, luciferase reporter, 44 h; activity change, negative = inhibition: at 41.8 µM (top of the series)
In short: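 A cell-based infection assay in which seeded cells (1,000 per well) receive test compound after 4 h, are inoculated with HCVcc-Cre at approximately 0.5 moi, and are incubated 44 h before luminescence detection.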
% is set by controls: 0 for no effect and ±100 for the full control effect; potency is the fitted concentration of half-maximal effect; tags give direction and shape of the fitted curve.

| Structure (SMILES) | activity change, negative = inhibition | Potency |
| --- | --- | --- |
| O=C1C(Cl)=C(N2CCOCC2)C(=O)N1CCc1ccccc1 | inactive: 25.1% | – |
| CN(C(=S)Oc1ccc(C(=O)Nc2ccccc2)cc1)c1ccccc1 | – | inconclusive [inhibitor, partial curve] |
| N#Cc1c(-c2ccccc2)nc(SCc2cccc(C(F)(F)F)c2)[nH]c1=O | inactive: -2.24% | – |
| CCOc1ccc(OCc2cccc(C(=O)N3CCCCCC3)c2)cc1 | inactive: -33.7% | – |
| O=C(NN1CCOCC1)c1cc(-c2cccs2)nc2ccccc12 | inactive: 18.7% | – |
| Cn1cc([C@@H]2C[C@H]3CN(Cc4cccc(Cl)c4)C(=O)[C@]34CCCN24)c(-c2ccccc2)n1 | – | active: 10 µM |
| CCn1c(=NC(=O)CSC(C)=O)sc2cc(OC)ccc21 | – | inconclusive [inhibitor, single point] |
| O=C(Nc1ccc(Cl)cc1)c1cc2c(cc1O)[nH]c1ccccc12 | – | inconclusive [inhibitor, single point] |
| O=C1c2cccc3cc(Br)cc(c23)C(=O)N1Nc1ccc(Br)cc1 | – | inconclusive [inhibitor, partial curve] |
| Cc1ccc(Cn2ccc(=O)c(Cc3c(Cl)cccc3Cl)c2C)cc1 | – | inconclusive [inhibitor, single point] |
| Cc1nn(C)c(C)c1S(=O)(=O)N(CC(=O)Nc1ccccn1)c1ccc(C(C)C)cc1 | – | inconclusive [inhibitor, single point] |
| CCCCOc1ccc(Br)cc1/C(C)=N/NC1=NCCN1 | – | active: 3.16 µM |
| COc1ccccc1NC(=O)c1ccc(NC(=O)CN2CCCC2)cc1 | – | inconclusive [inhibitor, single point] |
| Clc1ccc(-c2nc(Cc3ccccc3)no2)cc1 | inactive: 8.81% | – |
| COc1cccc(C(c2c(NC(=O)c3ccccc3)sc(C)c2C)N2CCN(C)CC2)c1 (configuration not stated) | inactive: 3.62% | – |
| COc1ccc(CNC(=O)c2cc3c(C)nc4ccccc4c3o2)c(OC)c1 | – | active: 3.16 µM |
| COc1ccc(S(=O)(=O)Nc2cccc(N(C)S(C)(=O)=O)c2)cc1Br | – | inconclusive [inhibitor, single point] |
| COc1ccnc(Oc2ccccc2)c1C(N)=O | inactive: 14.6% | – |
| CCOc1ccc(NC(=O)Nc2ccc(N(C)C(C)=O)cc2)cc1 | – | inconclusive [inhibitor, single point] |
| O=C1CC(c2cccc(Br)c2)c2cc3c(cc2N1)CCC3 (configuration not stated) | – | inconclusive [inhibitor, partial curve] |
| CCC1(OC(=O)CN)C(=O)OCc2c1cc1n(c2=O)Cc2cc3ccccc3nc2-1 (configuration not stated) | – | inconclusive [inhibitor, full curve, poor fit] |
| COc1ccc(NC(=O)CSc2nnc(Cc3ccc(C)cc3)c(=O)n2N)cc1OC | inactive: 4.71% | – |
| CC(=O)Nc1ccc(NC(=O)COC(=O)c2c(C)nn(-c3ccccc3)c2C)cc1 | – | inconclusive [inhibitor, single point] |
| Cc1ccc(CC(=O)c2ccc(Cl)cc2)cc1 | inactive: 2.66% | – |

| Structure (SMILES) | activity change, negative = inhibition | Potency |
| --- | --- | --- |
| COc1ccc(-n2nc([N+](=O)[O-])c(=NCCc3ccc(OC)c(OC)c3)n2O)cc1 | – | active: 12.6 µM |
| COc1ccc2sc(N(CCCN(C)C)C(=O)c3ccc(S(=O)(=O)N4CCCc5ccccc54)cc3)nc2c1 | – | inconclusive [inhibitor, single point] |
| CCCOC(=O)c1ccc(Oc2cn[nH]c2-c2ccc(OC)cc2O)cc1 | – | inconclusive [inhibitor, single point] |
| CCCOc1ccc(C(O)C(CN2CCOCC2)c2ccccc2)cc1 (configuration not stated) | inactive: -2.63% | – |
| CCCCN(C(=O)c1ccc(-c2ccc([N+](=O)[O-])cc2)o1)c1c(N)n(CCCC)c(=O)[nH]c1=O | – | inconclusive [inhibitor, single point] |
| CN1CCN(C(=S)c2cn(CCOc3ccccc3F)c3ccccc23)CC1 | – | inconclusive [inhibitor, full curve, poor fit] |
| Cc1ccc(CNC(=O)CN2C(=O)NC3(CCCC3)C2=O)cc1 | – | inconclusive [inhibitor, partial curve] |
| CCc1ccc(C(O)(C(C)C)C(CN2CCOCC2)c2ccccc2)cc1 (configuration not stated) | – | inconclusive [inhibitor, single point] |
| CC(=O)c1sc2c(c1OC(=O)c1ccc(Cl)cc1Cl)c(=O)n(-c1ccccc1)c(=S)n2-c1ccccc1 | – | inconclusive [inhibitor, single point] |
| COC(=O)Cc1nc(NC(=O)c2cccs2)sc1C | inactive: -2.26% | – |
| CC(C)C(=O)OCC(=O)Nc1ccc(N=Nc2ccccc2)cc1 | inactive: 1.11% | – |
| COc1cccc(CNC(=O)COc2cc3c(c4oc(=O)cc(C)c24)CCC(C)(C)O3)c1 | – | active: 1.41 µM |
| N#Cc1ccc(S(=O)(=O)N2CCC(C(=O)N3CCN(Cc4ccc5c(c4)OCO5)CC3)CC2)cc1 | – | active: 10 µM |
| COc1cccc(CNC(=O)c2cccc(NC(=O)C3=C(C)OCCS3)c2)c1 | – | inconclusive [inhibitor, single point] |
| O=c1cc(CN2CCN(c3ccccc3)CC2)c2cc(O)c(-c3ccccc3)cc2o1 | inactive: -0.833% | – |
| Cc1ccc(N/C=C/C(=O)c2cccs2)cc1C | – | inconclusive [inhibitor, single point] |
| Cc1ccc(C(=O)Nc2ccccc2C(N)=O)o1 | inactive: 7.31% | – |
| COC(=O)C1=C(c2ccc(F)cc2OCc2ccccc2)C[C@@H]2CC[C@H]1N2C(=O)NCc1ccc(C(F)(F)F)cc1 | – | inconclusive [inhibitor, full curve] |
| COC(=O)c1ccc(NC(=O)Cn2nc(-c3ccncc3)nc2SCC(=O)Nc2nccs2)cc1 | inactive: 9.62% | – |
| O=C(CCn1c(=O)oc2ccccc21)NCCN1CCc2ccccc2C1 | inactive: -8.43% | – |
| Cc1ccc(C)c(CN2C(=O)C3CCCN3c3ccc(C#N)cc32)c1 (configuration not stated) | – | inconclusive [inhibitor, partial curve] |
| CCOC(=O)c1ccccc1NC(=O)c1ccccc1SC | – | inconclusive [inhibitor, single point] |
| CCOc1ccccc1NC(=O)c1cnccn1 | – | inconclusive [inhibitor, partial curve] |
| COc1ccc(NC(=O)c2csc3c2CCCCC3)c(OC)c1 | – | inconclusive [inhibitor, single point] |

| Structure (SMILES) | activity change, negative = inhibition | Potency |
| --- | --- | --- |
| Cc1nc(CCl)cc(=O)[nH]1 | inactive: 5.88% | – |
| COc1ccc(NC(=O)COc2ccc3c(c2)OCO3)cc1 | – | inconclusive [inhibitor, partial curve] |
| O=c1c2ccccc2c(-c2ccc(O)cc2)nn1-c1cccc(C(F)(F)F)c1 | – | inconclusive [inhibitor, partial curve] |
| Fc1ccc(C2CC(c3ccco3)=NN2c2ccccc2)cc1 (configuration not stated) | – | inconclusive [inhibitor, single point] |
| Cc1nc(-c2ccc(S(=O)(=O)NCC3CCN(C(=O)OC(C)(C)C)CC3)s2)cs1 | – | inconclusive [inhibitor, single point] |
| COc1ccc(-c2csc3ncnc(Nc4ccc(O)cc4)c23)cc1 | – | inconclusive [inhibitor, partial curve] |
| c1ccc(OCCN2CCN(C(c3ccccc3)c3ccccc3)CC2)cc1 | – | active: 11.2 µM |
| COc1cccc(NC(=O)CN(C)C(=O)c2cccnc2Nc2cccc(C(F)(F)F)c2)c1 | – | inconclusive [inhibitor, partial curve, poor fit] |
| O=C(CN1CCCCC1)Nc1ccc(NC(=O)c2ccccc2Cl)cc1Cl | – | inconclusive [inhibitor, partial curve] |
| Cc1nc2c(cnn2-c2ccccc2Cl)c(=O)n1-c1ccc(N2CCC(C)CC2)cc1 | – | active: 12.6 µM |
| O=C(Nc1cccc([N+](=O)[O-])c1)c1cc(S(=O)(=O)N2CCOCC2)cs1 | – | inconclusive [inhibitor, full curve, poor fit] |
| COc1ccc2c(CN3CCN(S(=O)(=O)c4cccs4)CC3)cc(=O)oc2c1 | – | inconclusive [inhibitor, full curve, poor fit] |
| O=C(/C=C/NNC(=O)c1ccccc1)c1ccc([N+](=O)[O-])cc1 | – | active: 3.55 µM |
| COc1ccc(NC(=O)CSc2nnc3n2CCCCC3)cc1S(=O)(=O)N1CCOCC1 | inactive: -7.67% | – |
| Cn1c(O)c(N=Nc2ccccc2)c2ccccc21 | inactive: 5.48% | – |
| Cc1ccc(-n2cnc3scc(-c4cccs4)c3c2=O)cc1 | – | active: 11.2 µM |
| O=C(c1cnn2c(C(F)(F)F)cc(-c3ccc4c(c3)OCO4)nc12)N1CCCCC1 | – | inconclusive [inhibitor, single point] |
| Cc1c(C(=O)Cc2ccccc2)n(C)c2ccccc12 | inactive: -12.8% | – |
| CCc1ccccc1NC(=O)CSc1nc2n[nH]c(C)c2c(=N)n1-c1ccc(OC)cc1 | – | active: 11.2 µM |
| O=C(Nc1cc(C(F)(F)F)ccc1N1CCCCC1)c1cccc([N+](=O)[O-])c1 | – | inconclusive [inhibitor, partial curve, poor fit] |
| COc1ccc(C2CC(=O)Nc3cc(C)c(C)cc32)c(OC)c1OC (configuration not stated) | – | inconclusive [inhibitor, partial curve] |
| CCCSc1nnc(CNS(=O)(=O)c2ccc(C)cc2)n1C | inactive: 7.33% | – |
| Cc1ccc2c(c1)nnn2C1CCN(S(=O)(=O)c2ccc(C(=O)N3CC(C)CC(C)C3)cc2)CC1 (configuration not stated) | – | inactive |
| Cc1cc(C(=O)COc2ccc(-c3nnco3)cc2)c(C)n1Cc1ccccc1 | – | inconclusive [inhibitor, single point] |

From PubChem BioAssay AID651820 (National Center for Advancing Translational Sciences (NCATS), 2012)
